# The full ranking holds about 81,000 sequences; the median of “one-hybrid fitness for binding NBS DNA” is about -0.1, and the highest 2% start at about 0.36. The list shows a part of the results.
# B1: Caulobacter ParB omega fusion; a variant is named by its letters at X, in order, B8GW30 (parent)
# chain: MESVVVGEPGMSEGRRGLGRGLSALLGEVDAAPAQAPGEQLGGSREAPIEILQRNPDQPRRTFREEDLEDLSNSIREKGVLQPILVRPSPDTAGEYQIVAGERAWRAAQRAGLKTVPIMVRELDDLAVLEIGIIENVQRADLNVLEEALSYKVLMEKFERTQENIAQTIGKSXSHVANXMRLLXLPDEVQSYLVSGELTAXHARAIAAAADPVALAKQIIEGGLSVRETEALARKAPNLSAGKSKGGRPPRVKDTDTQALESDLSSVLGLDVSIDHRGSTGTLTITYATLEQLDDLCNRLTRGI
# Variants of: B1
# Test: one-hybrid fitness for binding NBS DNA (the Noc-binding site; scaled: cognate 1, non-cognate 0); higher = stronger binding
# Conditions: with NBS DNA site
# In short: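 Selection: bacterial one-hybrid in E. coli USO, HIS3 reporter with the site 19 bp from the promoter, 48 hours at 37°C on M9-minus-histidine plus 0.1 mM IPTG and 5 mM 3-AT. Libraries were Caulobacter ParB with four randomised specificity codons, sequenced on Illumina before and after selection. Fitness is the rescaled log change in variant-to-wild-type read ratio, anchored to the cognate and non-cognate sites.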
row,Variant,one-hybrid fitness for binding NBS DNA
1,AQLC,≤ 0.2
2,SPRG,≤ 0.2
3,RANN,≤ 0.2
4,PPIM,≤ 0.2
5,PAQL,≤ 0.2
6,MVHM,≤ 0.2
7,ADES,≤ 0.2
8,KVDS,≤ 0.2
9,RMLF,≤ 0.2
10,IAAA,≤ 0.2
11,NGEW,≤ 0.2
12,LQIV,≤ 0.2
13,DTLD,≤ 0.2
14,LQCL,≤ 0.2
15,KIRR,0.269
16,QKLH,0.246
17,VHSG,≤ 0.2
18,GAHD,≤ 0.2
19,MVPS,≤ 0.2
20,VLTK,≤ 0.2
21,GKQS,≤ 0.2
22,GYKR,0.205
23,GNSS,≤ 0.2
24,GSGV,≤ 0.2
25,CSQT,≤ 0.2

row,Variant,one-hybrid fitness for binding NBS DNA
1,FFHS,≤ 0.2
2,HDIR,≤ 0.2
3,NPSE,≤ 0.2
4,FYPD,≤ 0.2
5,IWRC,≤ 0.2
6,TSYN,≤ 0.2
7,RSSI,≤ 0.2
8,RYLA,≤ 0.2
9,RTTP,≤ 0.2
10,DFTF,≤ 0.2
11,DPSS,≤ 0.2
12,GAIG,≤ 0.2
13,VTCC,≤ 0.2
14,IYNQ,≤ 0.2
15,TYHV,≤ 0.2
16,MHCE,≤ 0.2
17,KALM,≤ 0.2
18,YVMC,≤ 0.2
19,ISMC,≤ 0.2
20,HQVR,≤ 0.2
21,HDQN,≤ 0.2
22,NGQS,≤ 0.2
23,LMIA,≤ 0.2
24,QNAT,≤ 0.2
25,LLAL,≤ 0.2

row,Variant,one-hybrid fitness for binding NBS DNA
1,DFAR,≤ 0.2
2,ATDY,≤ 0.2
3,TLNW,≤ 0.2
4,RISG,≤ 0.2
5,FHRY,≤ 0.2
6,PCSN,≤ 0.2
7,AAKG,≤ 0.2
8,NFVC,≤ 0.2
9,DWRR,≤ 0.2
10,TPYW,≤ 0.2
11,FGTY,≤ 0.2
12,GTHV,≤ 0.2
13,NGRC,≤ 0.2
14,QDFS,≤ 0.2
15,KQDR,≤ 0.2
16,SCTM,≤ 0.2
17,GNAI,≤ 0.2
18,MKDS,≤ 0.2
19,PPMG,≤ 0.2
20,LLAT,≤ 0.2
21,CNCG,≤ 0.2
22,REHV,≤ 0.2
23,LMRN,≤ 0.2
24,FFTF,≤ 0.2
25,DTKK,≤ 0.2

row,Variant,one-hybrid fitness for binding NBS DNA
1,SDRQ,≤ 0.2
2,RFYI,≤ 0.2
3,SPKT,≤ 0.2
4,TETR,≤ 0.2
5,IAWS,≤ 0.2
6,GICT,≤ 0.2
7,GVCD,≤ 0.2
8,ASGQ,≤ 0.2
9,AVTM,≤ 0.2
10,YWQR,≤ 0.2
11,RSIT,≤ 0.2
12,RLQK,≤ 0.2
13,ILTL,≤ 0.2
14,HIGC,≤ 0.2
15,TYKP,≤ 0.2
16,RPIG,≤ 0.2
17,QIKK,0.243
18,QQKL,0.327
19,PIKI,≤ 0.2
20,SRDV,≤ 0.2
21,CAPR,≤ 0.2
22,KILN,≤ 0.2
23,QRMI,0.261
24,NCFR,≤ 0.2
25,RIPM,≤ 0.2

row,Variant,one-hybrid fitness for binding NBS DNA
1,KQKM,≤ 0.2
2,CSIL,≤ 0.2
3,WPCS,≤ 0.2
4,KLCP,≤ 0.2
5,TRFN,≤ 0.2
6,TCEE,≤ 0.2
7,QAFG,≤ 0.2
8,LWGT,≤ 0.2
9,NTLF,≤ 0.2
10,AASE,≤ 0.2
11,HYPN,≤ 0.2
12,RSFS,0.252
13,QMVY,≤ 0.2
14,IFSG,≤ 0.2
15,WPLS,≤ 0.2
16,STHV,≤ 0.2
17,MQRC,≤ 0.2
18,AELS,≤ 0.2
19,EMFS,≤ 0.2
20,TWDS,≤ 0.2
21,DVAR,≤ 0.2
22,QRCV,0.406
23,VAGH,≤ 0.2
24,QPNF,≤ 0.2
25,HTTF,≤ 0.2

row,Variant,one-hybrid fitness for binding NBS DNA
1,GTEN,≤ 0.2
2,DVGT,≤ 0.2
3,IRMC,≤ 0.2
4,TCCG,≤ 0.2
5,RVPD,≤ 0.2
6,YDFT,≤ 0.2
7,QMVT,0.373
8,TKCS,≤ 0.2
9,QSGW,≤ 0.2
10,PYGP,≤ 0.2
11,VNLR,≤ 0.2
12,TQNP,≤ 0.2
13,FVTP,≤ 0.2
14,ADTN,≤ 0.2
15,PTCT,≤ 0.2
16,QPWV,≤ 0.2
17,ISRV,≤ 0.2
18,HLKA,≤ 0.2
19,QFQG,≤ 0.2
20,VPDR,≤ 0.2
21,PLLS,≤ 0.2
22,RTPS,≤ 0.2
23,MAVR,≤ 0.2
24,HMSL,≤ 0.2
25,PRSK,≤ 0.2

row,Variant,one-hybrid fitness for binding NBS DNA
1,RTHE,≤ 0.2
2,WNDS,≤ 0.2
3,QEHM,≤ 0.2
4,NFDS,≤ 0.2
5,EGWS,≤ 0.2
6,DSYA,≤ 0.2
7,LEHT,≤ 0.2
8,QLLY,≤ 0.2
9,DIGF,≤ 0.2
10,YTMG,≤ 0.2
11,RIAF,≤ 0.2
12,KSNS,≤ 0.2
13,SSDR,≤ 0.2
14,DSVV,≤ 0.2
15,IHSF,≤ 0.2
16,PGKS,≤ 0.2
17,CSSP,≤ 0.2
18,LAYV,≤ 0.2
19,MSNV,≤ 0.2
20,PLYC,≤ 0.2
21,MFMR,0.215
22,HRAG,≤ 0.2
23,LLWY,≤ 0.2
24,VAPK,≤ 0.2
25,REMD,≤ 0.2

row,Variant,one-hybrid fitness for binding NBS DNA
1,QKHH,0.205
2,EVVM,≤ 0.2
3,AERE,≤ 0.2
4,LIGG,≤ 0.2
5,INES,≤ 0.2
6,RDKE,≤ 0.2
7,SMVV,≤ 0.2
8,WNRR,≤ 0.2
9,HKGT,≤ 0.2
10,TDYC,≤ 0.2
11,QVIG,≤ 0.2
12,QCEC,≤ 0.2
13,RGEA,≤ 0.2
14,MSYC,≤ 0.2
15,VDNC,≤ 0.2
16,TLSL,≤ 0.2
17,PIET,≤ 0.2
18,QCRT,0.857
19,SRCL,≤ 0.2
20,QSTM,≤ 0.2

# Reference: a collection of fitness landscapes (doi:10.1016/j.celrep.2020.107928)
